Test results published in patent US11420968B2 (priority 2018, dated 2022).
Like-named read-outs stand apart in the source and are kept apart here.

What was measured:
Molt-4 cells [1] = system: Molt-4 cells
RS4;11 cells [2] = system: RS4;11 cells
Molt-4 cells [3] = test: cells; conditions: Homo sapiens, MOLT-4, read-out: Cellular activity (IC50, nM) Molt-4
RS4;11 cells [4] = test: cells; conditions: Homo sapiens, RS4-11, 48 h
[5] = read-out: Cellular activity (IC50, nM) Molt-4
[6] = read-out: Cellular activity (IC50, nM) RS4;11

SMILES | IC50 (Molt-4 cells [1]; [5]) [nM] | IC50 (RS4;11 cells [2]; [6]) [nM] | IC50 (Molt-4 cells [3]) [nM] | IC50 (RS4;11 cells [4]; read-out: Cellular activity (IC50, nM) RS4, 11) [nM] | IC50 (RS4;11 cells [4]; [6]) [nM] | IC50 (Molt-4 cells [1]; read-out: Celluclar activity (IC50, nM) Molt-4) [nM] | IC50 (RS4;11 cells [2]; read-out: Celluclar activity (IC50, nM) RS 4, 11) [nM]
CN(C)C1CCCN(c2ccccc2C2CCCN2c2ccc(-c3ccc(C(=O)NS(=O)(=O)c4ccc(NCC5CCOCC5)c([N+](=O)[O-])c4)c(Oc4cnc5[nH]ccc5c4)c3)cc2)C1 (single isomer, unassigned) [Example A118b, 3-((1H-pyrrolo[2,3-b]pyridin-5-yl)oxy)-4′-(2-(2-(3-(dimethylamino)piperidin-1-yl)phenyl)pyrrolidin-1-yl)-N-((3-nitro-4-(((tetrahydro-2H-pyran-4-yl)methyl)amino)phenyl)sulfonyl)-[1,1′-biphenyl]-4-carboxamide] | 459 | 1.2 |  |  |  |  | 
CN1CCCC(c2ccccc2C2CCCN2c2ccc(-c3ccc(C(=O)NS(=O)(=O)c4ccc(NCC5CCOCC5)c([N+](=O)[O-])c4)c(Oc4cnc5[nH]ccc5c4)c3)cc2)C1 (single isomer, unassigned) [Example A117b, 3-((1H-pyrrolo[2,3-b]pyridin-5-yl)oxy)-4′-(2-(2-(1-methylpiperidin-3-yl)phenyl)pyrrolidin-1-yl)-N-((3-nitro-4-(((tetrahydro-2H-pyran-4-yl)methyl)amino)phenyl)sulfonyl)-[1,1′-biphenyl]-4-carboxamide] | > 10000 | 46 |  |  |  |  | 
O=C(NS(=O)(=O)c1ccc(NCC2CCOCC2)c([N+](=O)[O-])c1)c1ccc(N2CCC3(CCC(N4CCC[C@H]4c4ccccc4C4CC4)C3)CC2)cc1Oc1cnc2[nH]ccc2c1 (single isomer, unassigned) [Example F39b, (R or S) 2-((1H-pyrrolo[2,3-b]pyridin-5-yl)oxy)-4-(2-((S)-2-(2-cyclopropylphenyl)pyrrolidin-1-yl)-8-azaspiro[4.5]decan-8-yl)-N-((3-nitro-4-(((tetrahydro-2H-pyran-4-yl)methyl)amino)phenyl)sulfonyl)benzamide] | > 10000 | 105 |  |  |  |  | 
CCc1c(Cl)cccc1C1CCCN1C1CC2(CCN(c3ccc(C(=O)NS(=O)(=O)c4ccc(NCC5CCOCC5)c([N+](=O)[O-])c4)c(Oc4cnc5[nH]ccc5c4)c3)CC2)C1 (single isomer, unassigned) [Example F74b, (S or R)-2-((1H-pyrrolo[2,3-b]pyridin-5-yl)oxy)-4-(2-(2-(3-chloro-2-ethylphenyl)pyrrolidin-1-yl)-7-azaspiro[3.5]nonan-7-yl)-N-((3-nitro-4-(((tetrahydro-2H-pyran-4-yl)methyl)amino)phenyl)sulfonyl)benzamide] | 4140 | 12 |  |  |  |  | 
CN(C)C1CCCN(c2ccccc2C2CCCN2c2ccc(-c3ccc(C(=O)NS(=O)(=O)c4ccc(NCC5CCOCC5)c([N+](=O)[O-])c4)c(Oc4cnc5[nH]ccc5c4)c3)cc2)C1 (single isomer, unassigned) [Example A118a, 3-((1H-pyrrolo[2,3-b]pyridin-5-yl)oxy)-4′-(2-(2-(3-(dimethylamino)piperidin-1-yl)phenyl)pyrrolidin-1-yl)-N-((3-nitro-4-(((tetrahydro-2H-pyran-4-yl)methyl)amino)phenyl)sulfonyl)-[1,1′-biphenyl]-4-carboxamide] | 979 | 3.7 |  |  |  |  | 
CC(C)c1ccccc1[C@H]1CCCN1c1ccc(-c2ccc(C(=O)NS(=O)(=O)c3ccc(NCC4(F)CCOCC4)c([N+](=O)[O-])c3)c(Oc3cnc4[nH]ccc4c3)c2)cc1 [Example G85-R, (R)-3-((1H-pyrrolo[2,3-b]pyridin-5-yl)oxy)-N-((4-(((4-fluorotetrahydro-2H-pyran-4-yl)methyl)amino)-3-nitrophenyl)sulfonyl)-4′-(2-(2-isopropylphenyl)pyrrolidin-1-yl)-[1,1′-biphenyl]-4-carboxamide] | 1610 |  | 1840 | 10 | 10 |  | 
O=C(NS(=O)(=O)c1ccc(NC[C@@H]2COCCO2)c([N+](=O)[O-])c1)c1ccc(C2=CCC(N3CCC[C@H]3c3ccccc3C3CC3)CC2)cc1Oc1cnc2[nH]ccc2c1 (single isomer, unassigned) [Example G9-b, (S or R)—N-((4-((((R)-1,4-dioxan-2-yl)methyl)amino)-3-nitrophenyl)sulfonyl)-3-((1H-pyrrolo[2,3-b]pyridin-5-yl)oxy)-4′-((S)-2-(2-cyclopropylphenyl)pyrrolidin-1-yl)-2′,3′,4′,5′-tetrahydro-[1,1′-biphenyl]-4-carboxamide] | 6450 | 28 |  |  |  | 6450 | 28
O=C(NS(=O)(=O)c1ccc(NCC2CCOCC2)c([N+](=O)[O-])c1)c1ccc(N2CCC3(CC2)CC(N2CCCC2c2cccc(Cl)c2C2CC2)C3)cc1Oc1cnc2[nH]ccc2c1 (single isomer, unassigned) [Example F72b, (S or R)-2-((1H-pyrrolo[2,3-b]pyridin-5-yl)oxy)-4-(2-(2-(3-chloro-2-cyclopropylphenyl)pyrrolidin-1-yl)-7-azaspiro[3.5]nonan-7-yl)-N-((3-nitro-4-(((tetrahydro-2H-pyran-4-yl)methyl)amino)phenyl)sulfonyl)benzamide] | 4300 | 42 |  |  |  |  | 
